We go through nine variants from the supplement of paper PMC12217912.

The list shows a part of the results. Sequences were assembled here from the parent chain. Inactive controls read about 0.05.

B1: TEV protease; numbered along this chain (parent)
chain: MGESLFKGPRDYNPISSSICHLTNESDGHTTSLYGIGFGPFIITNKHLFRRNNGTLVVQSLHGVFKVKDTTTLQQHLVDGRDMIIIRMPKDFPPFPQKLKFREPQREERICLVTTNFQTKSMSSMVSDTSCTFPSGDGIFWKHWIQTKDGQCGSPLVSTRDGFIVGIHSASNFTNTNNYFTSVPKNFMELLTNQEAQQWVSGWRLNADSVLWGGHKVFMVKPEEPFQPVKEATQL

The variants in the assay derive from B1. In words: raw area under fraction-flipped curve 0-4 h after induction (AUC4h, not background-subtracted), DNA-recorder readout of cleavage of the substrate (dimensionless); higher = more cleavage of the substrate by the protease variant. The settings on record: temperature: 34 °C; time window: 0-4 h after rhamnose induction. As to the method:
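In vivo DNA recorder in E. coli TOP10(DE3) ΔrhaA at 34 °C. Each TEVp single-site mutant (parent TEVp 0) is paired with a single-site variant of the 7-mer TEVs (canonical ENLYFQ|S). The substrate sits between flexible linkers in a Bxb1-sfGFP-TEVs-SsrA fusion, so cleavage stabilises Bxb1 and speeds flipping of a recombination array, read by NGS. The value is the raw area under the fraction-flipped curve over 0-4 h after rhamnose induction (AUC4h), with ≥20 reads per time point. It is not background-subtracted; inactive controls average about 0.047.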
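Further: Bxb1 expression induced with 0.2% (w/v) L-rhamnose at OD600 near 0.5, cultures sampled hourly, flipped fraction per protease–substrate barcode pair counted by paired-end Illumina sequencing.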

Turning to MGESLFKGPRDYNPISSSICHLTNESDGHTTSLCGIGFGPFIITNKHLFRRNNGTLVVQSLHGVFKVKDTTTLQQHLVDGRDMIIIRMPKDFPPFPQKLKFREPQREERICLVTTNFQTKSMSSMVSDTSCTFPSGDGIFWKHWIQTKDGQCGSPLVSTRDGFIVGIHSASNFTNTNNYFTSVPKNFMELLTNQEAQQWVSGWRLNADSVLWGGHKVFMVKPEEPFQPVKEATQL [Y34C], the “area with substrate ENLYAQS” value came to 0.0805, the “area with substrate ENLYDQS” value was 0.0494, the “area with substrate ENLYEQS” value came out at 0.0673 and the “area with substrate ENLYGQS” value turned out to be 0.102. The “area with substrate ENLYHQS” value was 0.0706, the “area with substrate ENLYKQS” value was 0.0553, the “area with substrate ENLYMQS” value stood at 0.0726 and the “area with substrate ENLYPQS” value turned out to be 0.0663. The “area with substrate ENLYRQS” value worked out at 0.0652, the “area with substrate ENLYWQS” value worked out at 0.0873 and the “area with substrate ENLYYQS” value is 0.0616.
In the case of MGESLFKGPRDYNPISSSICSLTNESDGHTTSLYGIGFGPFIITNKHLFRRNNGTLVVQSLHGVFKVKDTTTLQQHLVDGRDMIIIRMPKDFPPFPQKLKFREPQREERICLVTTNFQTKSMSSMVSDTSCTFPSGDGIFWKHWIQTKDGQCGSPLVSTRDGFIVGIHSASNFTNTNNYFTSVPKNFMELLTNQEAQQWVSGWRLNADSVLWGGHKVFMVKPEEPFQPVKEATQL [H21S], the “area with substrate ENLYAQS” value was found to be 0.0836, the “area with substrate ENLYDQS” value was found to be 0.0584, the “area with substrate ENLYEQS” value came to 0.0608 and the “area with substrate ENLYGQS” value came to 0.0653. Also, the “area with substrate ENLYHQS” value was 0.0616, the “area with substrate ENLYIQS” value came out at 0.1, the “area with substrate ENLYKQS” value stood at 0.0596 and the “area with substrate ENLYMQS” value was found to be 0.0693. The “area with substrate ENLYNQS” value was 0.0656, the “area with substrate ENLYPQS” value was found to be 0.0638, the “area with substrate ENLYQQS” value came out at 0.0653 and the “area with substrate ENLYRQS” value worked out at 0.0627. The “area with substrate ENLYSQS” value is 0.0855, the “area with substrate ENLYVQS” value is 0.128 and the “area with substrate ENLYWQS” value came to 0.0648.
Consider MGESLFKGPRDYNPISSSICHATNESDGHTTSLYGIGFGPFIITNKHLFRRNNGTLVVQSLHGVFKVKDTTTLQQHLVDGRDMIIIRMPKDFPPFPQKLKFREPQREERICLVTTNFQTKSMSSMVSDTSCTFPSGDGIFWKHWIQTKDGQCGSPLVSTRDGFIVGIHSASNFTNTNNYFTSVPKNFMELLTNQEAQQWVSGWRLNADSVLWGGHKVFMVKPEEPFQPVKEATQL [L22A], for which the “area with substrate ENLYAQS” value turned out to be 0.0652, the “area with substrate ENLYDQS” value amounted to 0.0461, the “area with substrate ENLYEQS” value turned out to be 0.0528 and the “area with substrate ENLYGQS” value came to 0.0589. Moreover, the “area with substrate ENLYHQS” value came out at 0.0487, the “area with substrate ENLYIQS” value stood at 0.0838, the “area with substrate ENLYMQS” value is 0.0585 and the “area with substrate ENLYNQS” value worked out at 0.0516. The “area with substrate ENLYPQS” value turned out to be 0.0489, the “area with substrate ENLYQQS” value came to 0.0556, the “area with substrate ENLYRQS” value amounted to 0.0545 and the “area with substrate ENLYSQS” value was 0.0661. Further, the “area with substrate ENLYTQS” value is 0.0531, the “area with substrate ENLYVQS” value is 0.079 and the “area with substrate ENLYWQS” value amounted to 0.0584.
With MGGSLFKGPRDYNPISSSICHLTNESDGHTTSLYGIGFGPFIITNKHLFRRNNGTLVVQSLHGVFKVKDTTTLQQHLVDGRDMIIIRMPKDFPPFPQKLKFREPQREERICLVTTNFQTKSMSSMVSDTSCTFPSGDGIFWKHWIQTKDGQCGSPLVSTRDGFIVGIHSASNFTNTNNYFTSVPKNFMELLTNQEAQQWVSGWRLNADSVLWGGHKVFMVKPEEPFQPVKEATQL [E3G], the “area with substrate ENLYAQS” value was 0.0436, the “area with substrate ENLYDQS” value stood at 0.0566, the “area with substrate ENLYEQS” value is 0.0653 and the “area with substrate ENLYGQS” value amounted to 0.0647. For the same variant, the “area with substrate ENLYHQS” value was 0.0598, the “area with substrate ENLYIQS” value was 0.0411, the “area with substrate ENLYLQS” value amounted to 0.0508 and the “area with substrate ENLYMQS” value came to 0.059. Besides, the “area with substrate ENLYNQS” value was found to be 0.0386, the “area with substrate ENLYPQS” value came out at 0.0706, the “area with substrate ENLYQQS” value came to 0.0508 and the “area with substrate ENLYRQS” value was determined as 0.0471. Moreover, the “area with substrate ENLYVQS” value was 0.057 and the “area with substrate ENLYWQS” value turned out to be 0.0709.
As to MGESLFKGPRDYNPISSSICHLTNESDGHTTSFYGIGFGPFIITNKHLFRRNNGTLVVQSLHGVFKVKDTTTLQQHLVDGRDMIIIRMPKDFPPFPQKLKFREPQREERICLVTTNFQTKSMSSMVSDTSCTFPSGDGIFWKHWIQTKDGQCGSPLVSTRDGFIVGIHSASNFTNTNNYFTSVPKNFMELLTNQEAQQWVSGWRLNADSVLWGGHKVFMVKPEEPFQPVKEATQL [L33F], the “area with substrate ENLYAQS” value was 0.0711, the “area with substrate ENLYDQS” value amounted to 0.067, the “area with substrate ENLYEQS” value was found to be 0.0611 and the “area with substrate ENLYGQS” value was 0.0683. Moreover, the “area with substrate ENLYHQS” value is 0.0668, the “area with substrate ENLYKQS” value worked out at 0.0683, the “area with substrate ENLYMQS” value worked out at 0.0656 and the “area with substrate ENLYNQS” value was 0.0588. Also, the “area with substrate ENLYPQS” value amounted to 0.0525, the “area with substrate ENLYQQS” value was determined as 0.062, the “area with substrate ENLYRQS” value came out at 0.0597 and the “area with substrate ENLYSQS” value was determined as 0.0576. Besides, the “area with substrate ENLYVQS” value stood at 0.065, the “area with substrate ENLYWQS” value stood at 0.0559 and the “area with substrate ENLYYQS” value was 0.06.
On to MGESLFKGPRDYNPISSSICHLTNESDGHTTSLYGNGFGPFIITNKHLFRRNNGTLVVQSLHGVFKVKDTTTLQQHLVDGRDMIIIRMPKDFPPFPQKLKFREPQREERICLVTTNFQTKSMSSMVSDTSCTFPSGDGIFWKHWIQTKDGQCGSPLVSTRDGFIVGIHSASNFTNTNNYFTSVPKNFMELLTNQEAQQWVSGWRLNADSVLWGGHKVFMVKPEEPFQPVKEATQL [I36N], for which the “area with substrate ENLYAQS” value is 0.0608, the “area with substrate ENLYCQS” value was 0.0585, the “area with substrate ENLYDQS” value is 0.0491 and the “area with substrate ENLYEQS” value was 0.055. Also, the “area with substrate ENLYGQS” value amounted to 0.0558, the “area with substrate ENLYHQS” value was determined as 0.0553, the “area with substrate ENLYIQS” value was determined as 0.0804 and the “area with substrate ENLYKQS” value is 0.0282. Further, the “area with substrate ENLYLQS” value turned out to be 0.0547, the “area with substrate ENLYMQS” value was determined as 0.0302, the “area with substrate ENLYNQS” value turned out to be 0.0489 and the “area with substrate ENLYPQS” value worked out at 0.0546. The “area with substrate ENLYRQS” value came out at 0.0388, the “area with substrate ENLYSQS” value was 0.0542, the “area with substrate ENLYWQS” value amounted to 0.0548 and the “area with substrate ENLYYQS” value was 0.0456.
For MGESLFKGPRDYNPISSSICHLTNESDGHTCSLYGIGFGPFIITNKHLFRRNNGTLVVQSLHGVFKVKDTTTLQQHLVDGRDMIIIRMPKDFPPFPQKLKFREPQREERICLVTTNFQTKSMSSMVSDTSCTFPSGDGIFWKHWIQTKDGQCGSPLVSTRDGFIVGIHSASNFTNTNNYFTSVPKNFMELLTNQEAQQWVSGWRLNADSVLWGGHKVFMVKPEEPFQPVKEATQL [T31C], the “area with substrate ENLYAQS” value worked out at 0.0824, the “area with substrate ENLYDQS” value is 0.0639, the “area with substrate ENLYEQS” value was 0.0726 and the “area with substrate ENLYGQS” value worked out at 0.0726. Further, the “area with substrate ENLYHQS” value came out at 0.0645, the “area with substrate ENLYIQS” value was 0.131, the “area with substrate ENLYKQS” value worked out at 0.0197 and the “area with substrate ENLYMQS” value amounted to 0.0662. Also, the “area with substrate ENLYNQS” value worked out at 0.0727, the “area with substrate ENLYPQS” value worked out at 0.0612, the “area with substrate ENLYQQS” value was determined as 0.0597 and the “area with substrate ENLYRQS” value amounted to 0.0701. The “area with substrate ENLYTQS” value is 0.0811, the “area with substrate ENLYVQS” value was 0.132, the “area with substrate ENLYWQS” value came to 0.0924 and the “area with substrate ENLYYQS” value came to 0.067.
Consider MGESLFKGPRDYNPISSSICHLTNESDGHTRSLYGIGFGPFIITNKHLFRRNNGTLVVQSLHGVFKVKDTTTLQQHLVDGRDMIIIRMPKDFPPFPQKLKFREPQREERICLVTTNFQTKSMSSMVSDTSCTFPSGDGIFWKHWIQTKDGQCGSPLVSTRDGFIVGIHSASNFTNTNNYFTSVPKNFMELLTNQEAQQWVSGWRLNADSVLWGGHKVFMVKPEEPFQPVKEATQL [T31R], for which the “area with substrate ENLYAQS” value came to 0.0741, the “area with substrate ENLYCQS” value was determined as 0.0706, the “area with substrate ENLYEQS” value was 0.0568 and the “area with substrate ENLYGQS” value came to 0.0546. Further, the “area with substrate ENLYIQS” value worked out at 0.071, the “area with substrate ENLYKQS” value was 0.0579, the “area with substrate ENLYLQS” value came out at 0.104 and the “area with substrate ENLYMQS” value amounted to 0.0608. The “area with substrate ENLYNQS” value came to 0.0538, the “area with substrate ENLYPQS” value stood at 0.0604, the “area with substrate ENLYQQS” value was determined as 0.0884 and the “area with substrate ENLYSQS” value is 0.0747. For the same variant, the “area with substrate ENLYTQS” value is 0.0529, the “area with substrate ENLYVQS” value was 0.0662, the “area with substrate ENLYWQS” value worked out at 0.0735 and the “area with substrate ENLYYQS” value is 0.0606.
For the variant MGESLFKGPRDYNPISSSICHLTNESDSHTTSLYGIGFGPFIITNKHLFRRNNGTLVVQSLHGVFKVKDTTTLQQHLVDGRDMIIIRMPKDFPPFPQKLKFREPQREERICLVTTNFQTKSMSSMVSDTSCTFPSGDGIFWKHWIQTKDGQCGSPLVSTRDGFIVGIHSASNFTNTNNYFTSVPKNFMELLTNQEAQQWVSGWRLNADSVLWGGHKVFMVKPEEPFQPVKEATQL [G28S], the “area with substrate ENLYAQS” value came to 0.0627, the “area with substrate ENLYDQS” value is 0.0578, the “area with substrate ENLYGQS” value was 0.0624 and the “area with substrate ENLYHQS” value was determined as 0.0588. In addition, the “area with substrate ENLYKQS” value was determined as 0.0664, the “area with substrate ENLYMQS” value was found to be 0.0582, the “area with substrate ENLYNQS” value is 0.0675 and the “area with substrate ENLYPQS” value came to 0.0748. Further, the “area with substrate ENLYRQS” value was 0.066, the “area with substrate ENLYSQS” value was 0.0766, the “area with substrate ENLYVQS” value was 0.103 and the “area with substrate ENLYWQS” value turned out to be 0.0706.
